Consider 66 cell lines from the supplement of paper PMC4967469.

pIC50: −log10 of the molar value. The IC50 comes from the fitted curve, where viability falls to half of the control; fits outside the tested doses are given as limits. AUC is the area under the same curve over the 256-fold range up to the top dose, as a fraction; the more sensitive the line, the further below 1. The top dose, if marked as inferred, comes from the curve model; the source does not state it. A value given as a limit tells only on which side of the number the result lay.

Compound in the assay: CCOc1cc2ncc(C#N)c(Nc3ccc(F)c(Cl)c3)c2cc1NC(=O)/C=C/CN(C)C [EKB-569]
In words: Viability of human cancer cell lines after 72 h of drug (GDSC screen). As to conditions: top dose inferred. Here is the method: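 Human cancer cell lines in 384-well plates, medium with 10% serum, drug for 72 h over a 256-fold dose range (nine 2-fold or five 4-fold steps up to the top dose). Adherent lines were fixed and stained with the nucleic acid dye Syto60, suspension lines read with resazurin; signal relative to control wells, capped at 0 and 100%. One two-parameter sigmoid per drug and line, fitted in a mixed model over all curves with the slope shared within a line.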
On to “AMO-1 (haematopoietic neoplasm, suspension, top dose 2.5 µM)”, for which the AUC is 0.967 and the negative-log IC50 (pIC50) is below 5.60.

Take “AsPC-1 (pancreas, adherent, top dose 2.5 µM)”: the AUC came out at 0.926 and the negative-log IC50 (pIC50) is below 5.60.

In the case of “NAMALWA (Burkitt lymphoma, suspension, top dose 2.5 µM)”, the AUC came out at 0.719 and the negative-log IC50 (pIC50) is 6.24.

For “SU-DHL-4 (B-cell lymphoma, suspension, top dose 2.5 µM)”, the AUC is 0.934 and the pIC50 was 5.68.

As for “SK-MEL-24 (melanoma, adherent, top dose 2.5 µM)”, the AUC amounted to 0.983 and the pIC50 was below 5.60.

As to “NCI-H1693 (lung adenocarcinoma, adherent, top dose 20 µM)”, the AUC was determined as 0.732 and the pIC50 was 5.06.

Regarding “HC-1 (hairy cell leukaemia, suspension, top dose 2.5 µM)”, the AUC came out at 0.585 and the pIC50 is 6.58.

Take “NCI-H1694 (small cell lung carcinoma, suspension, top dose 2.5 µM)”: the AUC worked out at 0.926 and the pIC50 is below 5.60.

With ES-2 (ovary, adherent, top dose 2.5 µM), the AUC came to 0.963 and the negative logarithm of the IC50 (pIC50) was below 5.60.

As to “NCI-H345 (small cell lung carcinoma, suspension, top dose 2.5 µM)”, the AUC stood at 0.99 and the negative logarithm of the IC50 (pIC50) is below 5.60.

Take “HCC2998 (large intestine, adherent, top dose 20 µM)”: the AUC was determined as 0.809 and the pIC50 is 5.00.

As to “SCC-3 (B-cell lymphoma, suspension, top dose 2.5 µM)”, the AUC was 0.9 and the pIC50 is 5.79.

As to “G-401 (kidney, adherent, top dose 2.5 µM)”, the AUC was 0.88 and the pIC50 is below 5.60.

For the cell line “SCC-25 (head and neck, adherent, top dose 2.5 µM)”, the AUC is 0.669 and the pIC50 is 6.31.

“NCI-SNU-1 (stomach, suspension, top dose 2.5 µM)”: the AUC was found to be 0.85 and the negative logarithm of the IC50 (pIC50) is 5.70.

“MHH-PREB-1 (B-cell leukaemia, suspension, top dose 2.5 µM)”: the AUC worked out at 0.988 and the pIC50 is below 5.60.

With “SK-HEP-1 (liver, adherent, top dose 2.5 µM)”, the AUC is 0.986 and the pIC50 was below 5.60.

On to “CAL-148 (breast, suspension, top dose 2.5 µM)”, for which the AUC stood at 0.979 and the pIC50 is below 5.60.

For the cell line “MCF7 (breast, adherent, top dose 2.5 µM)”, the AUC was determined as 0.986 and the negative-log IC50 (pIC50) was below 5.60.

As to “KYSE-410 (oesophagus, adherent, top dose 2.5 µM)”, the AUC is 0.857 and the pIC50 was 5.65.

As to “KYAE-1 (oesophagus, suspension, top dose 2.5 µM)”, the AUC was 0.216 and the pIC50 is 7.69.

Turning to “KMS-12-BM (myeloma, suspension, top dose 2.5 µM)”, the AUC worked out at 0.692 and the pIC50 is 6.32.

Regarding “NCC021 (kidney, adherent, top dose 2.5 µM)”, the AUC is 0.85 and the negative-log IC50 (pIC50) is 5.62.

Regarding “PANC-02-03 (pancreas, adherent, top dose 2.5 µM)”, the AUC came out at 0.806 and the negative logarithm of the IC50 (pIC50) is 5.80.

Take “NCI-H810 (large cell lung carcinoma, adherent, top dose 2.5 µM)”: the AUC turned out to be 0.956 and the negative logarithm of the IC50 (pIC50) is below 5.60.

For “BC-3 (B-cell lymphoma, suspension, top dose 2.5 µM)”, the AUC worked out at 0.832 and the pIC50 was 5.86.

Regarding “H2795 (mesothelioma, adherent, top dose 2.5 µM)”, the AUC turned out to be 0.869 and the pIC50 is 5.65.

On to “KARPAS-231 (B-cell leukaemia, suspension, top dose 2.5 µM)”, for which the AUC worked out at 0.606 and the pIC50 was 6.55.

For the cell line “A172 (glioma, adherent, top dose 2.5 µM)”, the AUC came to 0.962 and the pIC50 is below 5.60.

“JHH-2 (liver, adherent, top dose 2.5 µM)”: the AUC was 0.913 and the negative-log IC50 (pIC50) was below 5.60.

Take “T-T (oesophagus, adherent, top dose 2.5 µM)”: the AUC amounted to 0.919 and the pIC50 is below 5.60.

With “RERF-GC-1B (stomach, adherent, top dose 2.5 µM)”, the AUC came out at 0.899 and the pIC50 is below 5.60.

Take “SNU-407 (large intestine, adherent, top dose 2.5 µM)”: the AUC amounted to 0.729 and the pIC50 is 6.10.

Regarding “KYSE-510 (oesophagus, adherent, top dose 2.5 µM)”, the AUC was 0.959 and the negative logarithm of the IC50 (pIC50) is below 5.60.

Consider “KELLY (neuroblastoma, adherent, top dose 2.5 µM)”, for which the AUC was 0.986 and the pIC50 is below 5.60.

For “KS-1 (glioma, adherent, top dose 2.5 µM)”, the AUC came out at 0.81 and the pIC50 is 5.76.

For “CAL-78 (chondrosarcoma, adherent, top dose 2.5 µM)”, the AUC amounted to 0.986 and the pIC50 was below 5.60.

Turning to “COLO-800 (melanoma, adherent, top dose 2.5 µM)”, the AUC amounted to 0.959 and the negative-log IC50 (pIC50) was below 5.60.

As to “DBTRG-05MG (glioma, adherent, top dose 2.5 µM)”, the AUC was determined as 0.865 and the pIC50 was below 5.60.

On to “SU-DHL-5 (B-cell lymphoma, suspension, top dose 2.5 µM)”, for which the AUC is 0.852 and the negative-log IC50 (pIC50) is 5.91.

For “HT-115 (large intestine, adherent, top dose 2.5 µM)”, the AUC turned out to be 0.971 and the pIC50 is below 5.60.

Consider “NEC8 (testis, adherent, top dose 2.5 µM)”, for which the AUC stood at 0.988 and the pIC50 is below 5.60.

On to “LB831-BLC (bladder, adherent, top dose 2.5 µM)”, for which the AUC was determined as 0.982 and the negative logarithm of the IC50 (pIC50) is below 5.60.

For “IM-95 (stomach, adherent, top dose 2.5 µM)”, the AUC was found to be 0.724 and the pIC50 is 6.15.

Regarding “HT-1080 (fibrosarcoma, adherent, top dose 2.5 µM)”, the AUC was 0.988 and the pIC50 was below 5.60.

As to “COR-L105 (lung adenocarcinoma, adherent, top dose 2.5 µM)”, the AUC came to 0.186 and the pIC50 is 7.86.

On to “CTB-1 (B-cell lymphoma, suspension, top dose 2.5 µM)”, for which the AUC is 0.605 and the pIC50 is 6.47.

“A375 (melanoma, adherent, top dose 2.5 µM)”: the AUC stood at 0.991 and the negative logarithm of the IC50 (pIC50) is below 5.60.

Turning to “MG-63 (osteosarcoma, adherent, top dose 2.5 µM)”, the AUC is 0.984 and the pIC50 was below 5.60.

In the case of “MC-CAR (haematopoietic neoplasm, suspension, top dose 2.5 µM)”, the AUC was determined as 0.647 and the pIC50 is 6.42.

“KYSE-150 (oesophagus, adherent, top dose 2.5 µM)”: the AUC turned out to be 0.913 and the negative logarithm of the IC50 (pIC50) was below 5.60.

As to “SNU-175 (large intestine, suspension, top dose 2.5 µM)”, the AUC came out at 0.837 and the pIC50 was 5.82.

As for “SF295 (glioma, adherent, top dose 2.5 µM)”, the AUC is 0.972 and the pIC50 is below 5.60.

Consider “PC-14 (lung adenocarcinoma, adherent, top dose 2.5 µM)”, for which the AUC stood at 0.453 and the negative-log IC50 (pIC50) is 6.93.

For “BEN (non-small cell lung carcinoma, adherent, top dose 2.5 µM)”, the AUC stood at 0.983 and the negative-log IC50 (pIC50) was below 5.60.

Turning to “NCI-H2342 (lung adenocarcinoma, adherent, top dose 2.5 µM)”, the AUC amounted to 0.969 and the negative logarithm of the IC50 (pIC50) is below 5.60.

In the case of “PL18 (pancreas, adherent, top dose 2.5 µM)”, the AUC amounted to 0.98 and the pIC50 was below 5.60.

As to “MHH-NB-11 (neuroblastoma, adherent, top dose 2.5 µM)”, the AUC worked out at 0.917 and the pIC50 is below 5.60.

On to “MLMA (hairy cell leukaemia, semi-adherent, top dose 2.5 µM)”, for which the AUC worked out at 0.755 and the pIC50 was 6.07.

On to “CAS-1 (glioma, adherent, top dose 2.5 µM)”, for which the AUC was 0.805 and the negative logarithm of the IC50 (pIC50) was 5.73.

“NCI-H196 (small cell lung carcinoma, adherent, top dose 2.5 µM)”: the AUC was determined as 0.947 and the pIC50 was below 5.60.

Turning to “TC-71 (Ewing sarcoma, adherent, top dose 2.5 µM)”, the AUC stood at 0.958 and the pIC50 is below 5.60.

“ES3 (Ewing sarcoma, adherent, top dose 2.5 µM)”: the AUC is 0.717 and the pIC50 was 6.18.

“RD (rhabdomyosarcoma, adherent, top dose 2.5 µM)”: the AUC was determined as 0.968 and the negative-log IC50 (pIC50) is below 5.60.

As to “C-4-I (cervix, adherent, top dose 2.5 µM)”, the AUC worked out at 0.967 and the pIC50 is below 5.60.

For “NCI-H1563 (lung adenocarcinoma, adherent, top dose 2.5 µM)”, the AUC is 0.807 and the negative-log IC50 (pIC50) was 5.80.

One may read the pIC50 as −log10 of the IC50, conventionally taken in molar units.
